# Measured values taken from PubChem BioAssay AID504332 (National Center for Advancing Translational Sciences (NCATS), 2011).
# In all, about 350,000 compounds went through this assay and about 31,000 (8.9%) were called active. Inconclusive means that the source gave no clear call. Such entries were picked first, then a sample of the others. Calls come from the whole dose curve; as a rule, active = well fitted inhibition curve with a large enough effect; inconclusive = small, poorly fitted or top-dose-only effect; inactive = no such curve, though single readings can be large or run the other way. Where the call is inconclusive, the potency comes from a doubtful curve fit.
# Target: Histone-lysine N-methyltransferase EHMT2 (Homo sapiens) (UniProt Q96KQ7)
# Sequence of UniProt Q96KQ7 (Q96KQ7 whole entry, looked up): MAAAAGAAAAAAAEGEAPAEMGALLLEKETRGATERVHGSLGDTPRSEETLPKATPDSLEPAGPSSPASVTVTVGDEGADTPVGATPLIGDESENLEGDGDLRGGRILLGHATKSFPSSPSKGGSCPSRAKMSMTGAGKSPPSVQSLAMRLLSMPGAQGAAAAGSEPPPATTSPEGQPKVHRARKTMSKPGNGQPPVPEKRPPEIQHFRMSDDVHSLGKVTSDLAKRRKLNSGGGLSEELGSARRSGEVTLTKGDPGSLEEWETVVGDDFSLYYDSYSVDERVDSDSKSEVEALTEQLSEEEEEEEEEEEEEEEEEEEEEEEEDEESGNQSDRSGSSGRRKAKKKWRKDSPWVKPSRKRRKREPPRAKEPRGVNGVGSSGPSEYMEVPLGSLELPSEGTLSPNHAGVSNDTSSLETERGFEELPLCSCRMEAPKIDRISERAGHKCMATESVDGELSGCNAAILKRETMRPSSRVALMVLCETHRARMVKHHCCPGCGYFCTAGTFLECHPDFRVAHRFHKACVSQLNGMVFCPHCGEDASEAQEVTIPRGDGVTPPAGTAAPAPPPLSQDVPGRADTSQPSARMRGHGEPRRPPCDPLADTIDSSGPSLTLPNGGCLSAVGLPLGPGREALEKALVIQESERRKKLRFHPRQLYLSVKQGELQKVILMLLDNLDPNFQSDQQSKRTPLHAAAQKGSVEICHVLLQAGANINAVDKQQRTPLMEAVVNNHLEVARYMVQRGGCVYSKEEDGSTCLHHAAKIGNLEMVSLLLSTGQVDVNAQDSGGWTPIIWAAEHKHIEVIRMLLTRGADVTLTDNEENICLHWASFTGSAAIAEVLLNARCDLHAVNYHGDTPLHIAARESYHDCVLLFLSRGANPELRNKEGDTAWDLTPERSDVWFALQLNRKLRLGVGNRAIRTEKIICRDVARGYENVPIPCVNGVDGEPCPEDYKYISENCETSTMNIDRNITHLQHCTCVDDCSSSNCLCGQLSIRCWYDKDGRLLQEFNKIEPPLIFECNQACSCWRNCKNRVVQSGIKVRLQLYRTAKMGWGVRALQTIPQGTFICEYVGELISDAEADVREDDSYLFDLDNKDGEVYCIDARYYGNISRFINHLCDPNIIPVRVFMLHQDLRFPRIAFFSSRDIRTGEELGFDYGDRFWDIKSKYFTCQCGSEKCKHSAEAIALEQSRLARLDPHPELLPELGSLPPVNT
# Experiment: qHTS Assay for Inhibitors of Histone Lysine Methyltransferase G9a; note: nearly all actives have a fitted effect of over 75% in size
# Settings: G9a H3K9 monomethylation, AlphaScreen, 2 h; activity, negative = inhibition: at 59 µM (top of the series) unless noted
# Outline: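 Readings reflect AlphaScreen signal from monomethyl-H3K9 antibody detection. HMT at 20 nM; substrate b-H3K9 500 nM; cofactor SAM 20 uM; 2 h RT reaction; compounds tested as titrations in qHTS with 15 min preincubation.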
# % is set by controls: 0 for no effect and ±100 for the full control effect; potency is the fitted concentration of half-maximal effect; tags give direction and shape of the fitted curve.
Structure (SMILES),Potency,"activity, negative = inhibition"
Cc1ccc(-c2nc3ncccn3c2NC2CCCC2)o1,"inconclusive: 3.16 µM [inhibitor, partial curve, poor fit]",–
COc1ccc(-c2nc(CC(=O)Nc3cccc(S(=O)(=O)NC4=NCCC4)c3)cs2)cc1,–,inactive: 10.3% [at 2.33 µM]
C/C(CC(=O)Nc1ccc([N+](=O)[O-])cc1)=N\NC(=O)c1ccccc1O,–,inactive: 9.26% [at 0.501 µM]
COc1ccc(/C=C(\C#N)C(=O)Nc2ccc3[nH]c(=O)[nH]c3c2)cc1,–,inconclusive: -72.8% [inhibitor]
O=C(NCc1ccco1)C1CC(c2c(Cl)cccc2Cl)=NO1 (stereo unspecified),"inconclusive: 70.8 µM [inhibitor, single point]",–
CCC(CC)c1nnc(NC(=O)C2CCN(C(=O)c3ccco3)CC2)s1,active: 3.98 µM,–
Oc1ccc(Cl)cc1C(C#Cc1ccccc1)N1CCOCC1 (stereo unspecified),"inconclusive: 25.1 µM [inhibitor, single point]",–
Cc1ccc(C)c(N2CCN(C(=O)c3ccc4nc(-c5ccco5)c(-c5ccco5)nc4c3)CC2)c1,–,inactive: -8.08% [at 0.0925 µM]
Cc1ccc(/C=N\NC(=O)COc2ccc(C)cc2[N+](=O)[O-])cc1,"inconclusive: 39.8 µM [inhibitor, partial curve, poor fit]",–
Cn1c(=O)c2c(SCC(=O)NCc3ccc(F)cc3)nc(-c3ccccc3Cl)nc2n(C)c1=O,–,inactive: 5.77%
Cc1ccccc1OCC(=O)Nc1ccccc1NC(=O)c1ccco1,"inconclusive: 44.7 µM [inhibitor, partial curve, poor fit]",–
Cc1ccc(NS(=O)(=O)c2ccc3c(c2)[C@H]2C=CC[C@H]2[C@@H](c2ccc(F)cc2)N3)cc1C,active: 5.62 µM,–
COc1ccc(C(=O)CSc2nnc(CNc3ccc(C)cc3C)n2Cc2ccco2)cc1,"inconclusive: 39.8 µM [inhibitor, single point]",–
Nc1nc(SCC(=O)c2ccc(F)cc2)n[nH]1,active: 44.7 µM,–
C=CCn1c2[n+](c3ccccc3c1=O)CCCCC2,"inconclusive: 31.6 µM [inhibitor, partial curve, poor fit]",–
COc1ccc(CC(NC(C)=O)C(=O)NC2CCN(S(=O)(=O)c3ccccc3)CC2)c(OC)c1 (stereo unspecified),"inconclusive: 89.1 µM [inhibitor, partial curve, poor fit]",–
O=C(N/N=C/c1ccc(OCc2ccccc2)cc1)c1cc[n+](Cc2ccccc2)cc1,active: 70.8 µM,–
O=S(=O)(Nc1cc(Sc2ncn[nH]2)c(O)c2ccccc12)c1ccccc1,active: 1.41 µM,–
CCC(C)c1ccc(NC(=O)c2ccco2)cc1 (stereo unspecified),"inconclusive: 3.16 µM [inhibitor, single point]",–
CN(C)C(=O)c1ccc(NC(=O)COC(=O)CC23CC4CC(CC(Br)(C4)C2)C3)cc1,"inconclusive: 50.1 µM [inhibitor, partial curve, poor fit]",–
O=C1C2C3C=CC(C3)C2C(=O)N1/N=C/c1cc(Br)cc([N+](=O)[O-])c1O (stereo unspecified),"inconclusive: 44.7 µM [inhibitor, partial curve, poor fit]",–
COc1cccc(CN2CCN(Cc3cccc(Br)c3)CC2)c1OC,"inconclusive: 1.41 µM [inhibitor, single point]",–

Structure (SMILES),Potency,"activity, negative = inhibition"
CC(=O)CSc1nnc(CSc2ncccn2)n1C1CCCCC1,"inconclusive: 5.01 µM [inhibitor, partial curve, poor fit]",–
O=C(NCc1cccnc1)C(=O)NC1CCCCC1,–,inactive: 4.03% [at 0.501 µM]
COC(=O)Cc1cc(=O)[nH]c(Nc2nc3ccccc3o2)n1,–,inactive: 57.5% [at 12.7 µM]
N/C(Cc1ccc([N+](=O)[O-])cc1)=N\OC(=O)c1ccc2ccccc2c1,"inconclusive: 31.6 µM [inhibitor, partial curve, poor fit]",–
COC(=O)c1sc2cccc(F)c2c1S(=O)(=O)Nc1ccc(C)cc1Cl,–,inactive: -50.1%
COc1cc(OC)c(OC)cc1/C=N/n1c(C)nc2ccccc2c1=O,–,inactive: 14.3% [at 102 µM]
Cc1c(C)n(CC(O)CN2CCN(C)CC2)c2ccccc12 (stereo unspecified),"inconclusive: 89.1 µM [inhibitor, single point]",–
CCC(=O)N(CCC(c1ccco1)c1ccccc1OC)Cc1cccs1 (stereo unspecified),"inconclusive: 89.1 µM [inhibitor, single point]",–
Brc1ccc(C2=CSC3=NCCN23)cc1,"inconclusive: 35.5 µM [inhibitor, partial curve]",–
O=C(COc1ccc2oc(-c3ccco3)cc(=O)c2c1)N1CCCCC1,"inconclusive: 50.1 µM [inhibitor, partial curve, poor fit]",–
Cc1nn(S(=O)(=O)c2ccc(Cl)cc2)c(C)c1S(=O)(=O)N1CCOCC1,"inconclusive: 89.1 µM [inhibitor, single point]",–
Cc1ccc(NC(=O)CSc2nc3ccc(NC(=O)COc4ccc(C)cc4)cc3s2)cc1,–,inactive: 4.33%
Cc1ccc(-n2cc(CN3CCN(Cc4nccn4C)CC3)c(-c3cccc(C)c3)n2)cc1,"inconclusive: 35.5 µM [inhibitor, partial curve, poor fit]",–
O=C(Cn1nc(CNc2ccc(Cl)cc2)[n+]2c1CCCCC2)c1ccc(Br)cc1,"inconclusive: 28.2 µM [inhibitor, single point]",–
CNS(=O)(=O)c1cccc(C(=O)OCC(=O)Nc2ccc(N3CCCCC3)cc2)c1,"inconclusive: 50.1 µM [inhibitor, partial curve, poor fit]",–
CCOc1ccc2nc(SCC(=O)NCc3ccc(S(N)(=O)=O)cc3)[nH]c2c1,"inconclusive: 79.4 µM [inhibitor, single point]",–
CCN(CC)CCN1C(=O)C(O)=C(C(C)=O)C1c1ccc(OC)c(OC)c1 (stereo unspecified),–,inconclusive: -67% [inhibitor]
COc1ccc(-c2cc(-c3cccnc3)c(C#N)c(N)n2)cc1,"inconclusive: 89.1 µM [inhibitor, single point]",–
Cc1ccccc1C1=CCN(c2ncc(NC(=O)c3ccc(Cl)cc3)cc2C(=O)O)CC1,"inconclusive: 22.4 µM [inhibitor, single point]",–
O=C(/C=C/c1ccc2ccccc2n1)N1CCN(S(=O)(=O)c2ccccc2F)CC1,"inconclusive: 89.1 µM [inhibitor, single point]",–
COc1cccc(/C=N/Nc2ccc([N+](=O)[O-])cc2)c1O,"inconclusive: 79.4 µM [inhibitor, single point]",–
O=C(N/N=C/c1ccc(-c2cccc([N+](=O)[O-])c2)o1)c1cccs1,–,inactive: 4.37% [at 102 µM]

Structure (SMILES),Potency,"activity, negative = inhibition"
CN(CC(=O)NC(=O)NC1CCCCC1)c1ccccc1,"inconclusive: 8.91 µM [inhibitor, single point]",–
CCn1c(SCC(=O)Nc2nc(C)c(C)s2)nc2cccnc21,"inconclusive: 28.2 µM [inhibitor, single point]",–
COc1ccccc1NC(=S)Nc1ccccn1,"inconclusive: 20 µM [inhibitor, single point]",–
O=C(CC1C(=O)NCCN1CCCc1ccccc1)NCCc1ccccc1F (stereo unspecified),"inconclusive: 50.1 µM [inhibitor, partial curve, poor fit]",–
Cc1cc(N2CCOCC2)nc2ccc(NC(=S)N3CCN(c4ccccc4)CC3)cc12,"inconclusive: 12.6 µM [inhibitor, partial curve, poor fit]",–
O=C(COC(=O)COc1ccccc1)NC1CCCc2ccccc21 (stereo unspecified),–,inactive: 8.27%
Cc1c(C)c2c(OCC(=O)Nc3cccnc3)cc3c(c2oc1=O)CCC(C)(C)O3,"inconclusive: 12.6 µM [inhibitor, full curve]",–
Cc1cc(Cl)ccc1Oc1cccc(C(=O)/C(C#N)=C/N(C)C)c1,"inconclusive: 25.1 µM [inhibitor, partial curve, poor fit]",–
Cc1cc(C)c(C)c(S(=O)(=O)ON2C(=O)c3ccccc3C2=O)c1C,active: 7.94 µM,–
COc1ccc(NC(=O)C2(c3cccs3)CCOCC2)cc1,–,inactive: -0.811% [at 102 µM]
Cc1csc(NC(=O)CSc2nncc(=O)n2N)n1,"inconclusive: 31.6 µM [inhibitor, full curve]",–
COc1ccc(C2C=C(c3ccccc3)Nc3ncnn32)cc1 (stereo unspecified),–,inconclusive: -97.7% [inhibitor]
CCOC(=O)N/N=C\c1ccc(-c2cccc(C(F)(F)F)c2)o1,"inconclusive: 89.1 µM [inhibitor, single point]",–
C=CCn1c(SCC(=O)Nc2cc(C)on2)nnc1C1COc2ccccc2O1 (stereo unspecified),–,inactive: 28.1% [at 102 µM]
CCOc1ccccc1NC(=O)Nc1cc2c(cc1N1CCCCC1)n(CC)c(=O)n2CC,"inconclusive: 22.4 µM [inhibitor, partial curve]",–
Cc1cc(C)nc(SCCCNCc2c(F)cccc2Cl)n1,"inconclusive: 89.1 µM [inhibitor, partial curve, poor fit]",–
CCC(C)(C)n1nnnc1C(c1ccc(C)cc1)N1CCSCC1 (stereo unspecified),–,inactive: -9.14%
CC1Cc2ccccc2N1C(=O)C(C)n1cc(C(F)(F)F)cc(Cl)c1=O (stereo unspecified),"inconclusive: 7.08 µM [inhibitor, single point]",–
Nc1nc(N)c(N=Nc2ccc(Cl)cc2)c(=O)[nH]1,–,inactive: 2.44% [at 102 µM]
Cc1ccc(C)c(-c2cc(C(=O)NC3CC3)c3ccccc3n2)c1,active: 44.7 µM,–
COc1ccc(N2C(=O)/C(=C\c3ccco3)N=C2SCC(=O)NC(C)(C)C)cc1Cl,"inconclusive: 39.8 µM [inhibitor, single point]",–
CC(Sc1nnc(-c2ccccc2)c(-c2ccccc2)n1)C(=O)Nc1ncc(Cl)cc1Cl (stereo unspecified),"inconclusive: 25.1 µM [inhibitor, single point]",–
